“And” between values parts separate entries of the source, which are not always exact repeats. Equal entries are not always repeated. About 1,200 (2.5%) of roughly 48,000 compounds were called active. Inconclusive results (about 2%) are left out.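 Rule for the calls: active = activation of at least 60% and not above a set upper limit (about 1 call in 100 departs from these limits); inconclusive = activation of 40% to 60%, or above that upper limit; inactive = activation under 40%.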 This is one part of the list.
target: Probable G-protein coupled receptor 32 (Homo sapiens) (UniProt O75388); experiment: qHTS for Agonists of Human Resolvin D1 Receptor DRV1; conditions: CHO-K1 GPR32 beta-arrestin PathHunter luminescence, 90 min; at 76.9 µM; hits give high values; zero percent set by DMSO-only wells; note: 0% is about no effect
Outline: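 Engineered CHO-K1 line co-expressing GPR32-ProLink and EA-beta-arrestin. Compound treatment lasted 90 min at 37 °C. Luminescence was recorded after 1 h with substrate at ambient temperature, relative to DMSO basal wells.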

UniProt O75388, sequence (O75388 whole entry, looked up): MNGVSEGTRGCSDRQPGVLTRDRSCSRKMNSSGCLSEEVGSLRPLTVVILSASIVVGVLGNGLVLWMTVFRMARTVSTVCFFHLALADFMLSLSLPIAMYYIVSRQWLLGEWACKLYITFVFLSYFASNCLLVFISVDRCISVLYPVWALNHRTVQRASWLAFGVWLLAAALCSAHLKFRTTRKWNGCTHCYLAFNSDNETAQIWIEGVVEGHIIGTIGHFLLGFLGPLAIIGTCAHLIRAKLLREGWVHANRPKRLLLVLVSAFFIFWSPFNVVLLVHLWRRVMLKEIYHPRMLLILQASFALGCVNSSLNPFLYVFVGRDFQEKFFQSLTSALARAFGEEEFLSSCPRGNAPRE

activation, inactive:
Cc1ccccc1Nc1nn2c(=O)c3ccc(C(=O)NCC(C)c4ccccc4)cc3nc2s1 (centres undefined) 24.1%
CCCCN(C)CCNC(=O)c1nn(-c2ccc(OC)c(Cl)c2)c(=O)c2c1c1ccccc1n2C 13.1%
Cc1nn(-c2ccccc2)c2sc(C(=O)Nc3ccc(Cl)cc3Cl)cc12 -19.7%
Cc1cccn2c(=O)c(C(=O)N3CCN(c4ccccc4F)CC3)cnc12 -0.207%
COc1ccc(C(=O)Nc2nnc(SCc3cc(=O)c4cc(C)ccc4[nH]3)s2)cc1OC 13.9%
COc1ccc(CNC(=O)Cn2c(=O)c3cccn3c3cccnc32)cc1 4.93%
NCCSSCCN -6.25%
COC(=O)C1=C(CS(=O)(=O)c2ccc(C)cc2C)NC(=O)NC1c1ccc(C)cc1 (centres undefined) 2.26%
COc1ccc2c(C)c(CCC(=O)NCCc3ccccc3)c(=O)oc2c1 49.5%
CCN(CC)c1ccc2cc(-c3nnc(Nc4ccc(C)cc4)s3)c(=O)oc2c1 -3.57%
Cc1cc(C)c(S(=O)(=O)NCc2ccc3c(c2)CCN3C(=O)c2ccccc2)c(C)c1 -12.2%
COC(=O)c1ccc(NC(=O)c2c(NCc3cccc(F)c3)sc3c2CCCC3)cc1 -9.9%
Cc1cc(NC2CCCCC2)nc(-n2nc(C)cc2C)n1 -25.6%
Cc1cc2c(cc1S(=O)(=O)N(CCN(C)C)Cc1ccccc1)OCC(=O)N2 -7.76%
Cc1cccc(N2CCN(S(=O)(=O)c3cc(C(=O)Nc4ccc(Oc5ccccc5)cc4)ccc3F)CC2C)c1 (centres undefined) -5.77%
COc1ccc(C(=O)NCCn2cc(SCC(=O)Nc3ccc4c(c3)OCCO4)c3ccccc32)cc1 -2.26%
CCC(Oc1ccccc1F)C(=O)Nc1cc(-c2ccccc2)no1 (centres undefined) -23.8%
COc1ccccc1C(c1c(O)cc(C)n(Cc2ccco2)c1=O)N1CCCCC1 (centres undefined) -8.78%
COc1ccc(Nc2cc(C)c3cc(NC(=O)c4ccccc4Cl)ccc3n2)cc1 20.5%
Fc1ccc(-c2noc3ncnc(NCCc4ccc(Cl)cc4)c23)cc1 13.2%
COc1cccc(N2CC(NC(=O)c3cc4ccccc4o3)CC2=O)c1 (centres undefined) -8.31%
CC(C)c1ccc2c(c1)NC(c1ccc(F)cc1)=NC(c1cccs1)=N2 -35.8%
Cc1ccc(NC(=O)Nc2nnc(SCC(=O)N3CCCCC3)s2)cc1 -7.54%
Cc1cccc(C(=O)NCCc2nc3ccccc3n2Cc2ccccc2Cl)c1 2.97%
Cc1cc(Nc2cccc(C(F)(F)F)c2)nc2ccc(NC(=O)Cc3ccc(Cl)cc3)cc12 19.3%
Cc1nc2ncnn2c(C)c1CCC(=O)N1CCN(c2ccc(F)cc2)CC1 -1.37%
COc1cccc(CNC(=O)N2CCc3c(sc4c3CCCC4)C2c2ccc(F)cc2)c1 (centres undefined) 22.1%
CCOc1ccccc1CNC(=O)CSc1n[nH]c(-c2ccccc2)n1 -10.5%
O=C(CSc1nnc(-c2ccncc2)n1-c1ccccc1)Nc1ccc(F)cc1 9.1%
CCOC(=O)CCc1c(C)nc2c(-c3ccccc3)c(C)[nH]n2c1=O -22.5%
COc1ccc(OC)c(C2C(C(=O)Nc3ccc(C)cc3C)=C(C)Nc3c(C(=O)Nc4ccc(F)cc4)cnn32)c1 (centres undefined) -11%
CCn1c2c(c(=O)n3ncc(C(=O)N4CCN(c5ccccc5)CC4)c13)CN(Cc1ccc(OC)cc1)CC2 -23.3%
CC(C)c1noc(-c2ccccc2OCC(=O)Nc2ccc([N+](=O)[O-])cc2)n1 -15.8%
COc1ccc(Cl)cc1NC(=O)CSc1nc(=O)n(Cc2ccco2)c2c1CCC2 -4.73%
CC(C)NCC(O)c1ccc(O)c(O)c1 (centres undefined) -0.798% and -1.44%
CCOC(=O)c1ccccc1NC(=O)c1cn(CC(C)C)c(=O)c2cc(OC)c(OC)cc12 1.73%
Nc1ccc(O)cc1 14.6%
COc1ccc(N2CCN(S(=O)(=O)c3ccc(C4CCCCC4)cc3)CC2)cc1 -5.92%
Cc1ccc(OCC(=O)Nc2nnc(S(=O)(=O)N3CCc4ccccc43)s2)cc1 12.7%
COc1ccc(OC)c(-c2noc(CSc3nnc(-c4ccccc4)n3-c3ccccc3)n2)c1 8.51%
Cc1ccc(-n2ncc3c(Nc4ccc(Oc5ccccc5)cc4)ncnc32)c(C)c1 16.8%
CCOCCCNC(=O)c1c[nH]c2ccc(S(=O)(=O)N(C)c3ccc(Cl)cc3F)cc2c1=O 3.64%
CN1CCN(C(CNC(=O)C(=O)Nc2ccc(Cl)cc2)c2cccnc2)CC1 (centres undefined) 8.09%
Cc1ccc(C)c(N2CCN(C(=O)CCc3nnc4n(C)c(=O)c5ccccc5n34)CC2)c1 -16.8%
CCOC(=O)c1ccc(NC(=O)c2c(NCc3sccc3C)sc3c2CCC(C)C3)cc1 (centres undefined) 10.1%
NC(=O)c1nc(Nc2ccccc2)sc1NC(=O)c1c(F)cccc1F -1.74%
CCOC(=O)c1cccnc1SCC(=O)N(CC)c1cccc(C)c1 -4.79%
COc1ccc(F)cc1S(=O)(=O)NCC(c1ccco1)S(=O)(=O)c1cccs1 (centres undefined) -28.9%
CC(C)(C)c1ccc(OCC(=O)Nc2ccc(C(=O)OC3CCCCC3)cc2)cc1 -4.84%
CCc1ccccc1NC(=O)c1oc(=O)c2ccccc2c1-c1ccccc1 -26.8%
CC(C)Cn1nc(NC(=O)c2cccc(Cl)c2)c2cc3ccccc3nc21 -7.68%
CCCCCN(CCCCC)C(=O)C(CCC(=O)O)NC(=O)c1ccc(Cl)c(Cl)c1 (centres undefined) 32.2% and -0.0349%
CCCCOc1cccc(C(=O)Nc2sc3c(c2C(=O)OCC)CCCC3)c1 -1.85%
Cc1ccc2nc3c(cc(C#N)c(=O)n3-c3nnc(SCc4ccc(F)cc4)s3)c(=O)n2c1 7.28%
Cc1cccc2c(=O)cc(CSc3ccccc3NC(=O)C(C)C)[nH]c12 -10.4%
COc1cccc(NC(=O)CSc2nc(=O)n(Cc3cccnc3)c3c2CCC3)c1 -13.7%
Cc1ccc(Sc2ccc(N3CCCC(C(=O)Nc4ccc(F)c(Cl)c4)C3)nn2)cc1 (centres undefined) 27.3%
COc1ccc(CCNC(=O)CCCCn2c(=O)c3ccccc3n(Cc3cc(C)ccc3C)c2=O)cc1OC -4.73%
CCCN(CCC)C(=O)Cn1c(=O)n(-c2ccc(OC)cc2OC)c(=O)c2c3c(sc21)CCC3 -25.5%
CCOc1ccc(CNC(=O)c2ccc3c(c2)c(C)c(C)n3C)cc1 -19.1%
CCOc1ccccc1NC(=O)Cn1c(=O)n(CC(=O)NCc2ccccc2Cl)c(=O)c2sccc21 11.6%
COc1ccc(OCC(=O)Nc2ccc(-c3nc4cc(Cl)ccc4o3)cc2)cc1 3.24%
CCCn1c2ccccc2c2cnn(CC(=O)NCC3CCN(Cc4ccc(C)cc4)CC3)c(=O)c21 -0.152%
CCOc1ccc(-n2c(SCc3ccccc3)nc3c([nH]c4ccccc43)c2=O)cc1 -18.1%
CC(C)C1N=C2c3ccccc3N=C(SCC(=O)NCc3ccc(Cl)cc3)N2C1=O (centres undefined) -18.9%
O=C(Nc1ccc2c(c1)CCCN2C(=O)c1cccs1)c1ccccc1 -8.69%
O=C(Cn1c(=O)n(Cc2ccccc2)c(=O)c2sc3ccccc3c21)Nc1ccccc1F -5.09%
O=C(NC1CCCc2ccccc21)c1ccc2c(c1)sc1nc(-c3ccccc3)cn12 (centres undefined) -17.6%
CC(=O)N1CCOc2cc(S(=O)(=O)NCc3ccc(F)cc3)c(C)cc21 20.9%
COc1ccc(-n2nc(C(=O)N3CCN(c4ccccc4OC)CC3)c3c4ccccc4n(C)c3c2=O)cc1Cl -5.3%
COc1ccccc1CNC(=O)CCCN1C(=O)CSc2c1c(C)nn2-c1ccccc1 -17.7%
COc1cccc(Oc2nc(C)nc3c2oc2ccccc23)c1 -14.5%
Cc1c(C(=O)NCc2cccc(Cl)c2)sc2nc[nH]c(=O)c12 -10.2%
CCOc1ccccc1NC(=O)C1CCN(S(=O)(=O)c2cccs2)CC1 18.8%
CC(CNC(=O)CCc1cn(Cc2ccccc2Cl)c2ccccc12)c1ccccc1 (centres undefined) -29.8%
CCCS(=O)(=O)c1nc(S(=O)(=O)c2ccc(C)cc2)c(NCc2ccccc2Cl)s1 -20.1%
Cc1nc(N2CCCC2)c2c(C(=O)Nc3cccc(Cl)c3)c(C)oc2n1 -10.3%
CCOc1ccc(NC(=O)Cn2ccn3nc(-c4ccc(OC)c(OC)c4)cc3c2=O)cc1 -5.95%
Cc1cc(C)cc(NC(=O)Nc2ccc3nc(N4CCN(C)CC4)cc(C)c3c2)c1 14%
CC1(C)CC(=O)c2cc(C#N)c(=O)n(-c3ccc(Cl)cc3)c2C1 -0.962%
CCc1ccc(NC(=O)c2ccc(F)c(S(=O)(=O)N3CCN(c4ccc(OC)cc4)CC3)c2)cc1 -12.2%
Cc1ccsc1CN(C(=O)c1ccc(OCC(C)C)cc1)C1CCS(=O)(=O)C1 (centres undefined) -20%
O=C(O)CCC(=O)Nc1sc2c(c1C(=O)Nc1ccccc1)CCCCC2 5.75%
COc1ccc(NC(=O)Cn2cc(C(=O)c3ccccc3)c(=O)c3cc(OC)ccc32)c(OC)c1 -8.86%
